Substitutions are numbered along the chain they refer to. Numbers in names are those of the source.
B1: mCherry-DDX6(WT), shRNA-resistant [not stated] / GFP-Ago2(S387A), phospho-null mutant [not stated] (parent)
chain 1: MSTARTENPVIMGLSSQNGQLRGPVKPTGGPGGGGTQTQQQMNQLKNTNTINNGTQQQAQSMTTTIKPGDDWKKTLKLPPKDLRIKTSDVTSTKGNEFEDYCLKRELLMGIFEMGWEKPSPIQEESIPIALSGRDILARAKNGTGKSGAYLIPLLERLDLKKDNIQAMVIVPTRELALQVSQICIQVSKHMGGAKVMATTGGTNLRDDIMRLDDTVHVVIATPGRILDLIKKGVAKVDHVQMIVLDEADKLLSQDFVQIMEDIILTLPKNRQILLYSATFPLSVQKFMNSHLQKPYEINLMEELTLKGVTQYYAYVTERQKVHCLNTLFSRLQINQSIIFCNSSQRVELLAKKISQLGYSCFYIHAKMRQEHRNRVFHDFRNGLCRNLVCTDLFTRGIDIQAVNVVINFDFPKLAETYLHRIGRSGRFGHLGLAINLITYDDRFNLKSIEEQLGTEIKPIPSNIDKSLYVAEYHSEPVEDEKP
chain 2: MYSGAGPALAPPAPPPPIQGYAFKPPPRPDFGTSGRTIKLQANFFEMDIPKIDIYHYELDIKPEKCPRRVNREIVEHMVQHFKTQIFGDRKPVFDGRKNLYTAMPLPIGRDKVELEVTLPGEGKDRIFKVSIKWVSCVSLQALHDALSGRLPSVPFETIQALDVVMRHLPSMRYTPVGRSFFTASEGCSNPLGGGREVWFGFHQSVRPSLWKMMLNIDVSATAFYKAQPVIEFVCEVLDFKSIEEQQKPLTDSQRVKFTKEIKGLKVEITHCGQMKRKYRVCNVTRRPASHQTFPLQQESGQTVECTVAQYFKDRHKLVLRYPHLPCLQVGQEQKHTYLPLEVCNIVAGQRCIKKLTDNQTSTMIRATARSAPDRQEEISKLMRSAAFNTDPYVREFGIMVKDEMTDVTGRVLQPPSILYGGRNKAIATPVQGVWDMRNKQFHTGIEIKVWAIACFAPQRQCTEVHLKSFTEQLRKISRDAGMPIQGQPCFCKYAQGADSVEPMFRHLKNTYAGLQLVVVILPGKTPVYAEVKRVGDTVLGMATQCVQMKNVQRTTPQTLSNLCLKINVKLGGVNNILLPQGRPPVFQQPVIFLGADVTHPPAGDGKKPSIAAVVGSMDAHPNRYCATVRVQQHRQEIIQDLAAMVRELLIQFYKSTRFKPTRIIFYRDGVSEGQFQQVLHHELLAIREACIKLEKDYQPGITFIVVQKRHHTRLFCTDKNERVGKSGNIPAGTTVDTKITHPTEFDFYLCSHAGIQGTSRPSHYHVLWDDNRFSSDELQILTYQLCHTYVRCTRSVSIPAPAYYAHLVAFRARYHLVDKEHDSAEGSHTSGQSNGRDHQALAKAVQVHQDTLRTMYFA
B2: mCherry-DDX6(WT), shRNA-resistant [not stated] / GFP-Ago2(S387D), phospho-mimic mutant [not stated] (parent)
chain 1: B1 chain 1
chain 2: B1 chain 2 with A387D

Variants of: B1
Assay: GFP-trap pull-down, Western blot quantification
Settings: with GFP-Ago2(S387A), shDDX6 with shRNA-resistant mCherryDDX6(R386E), partner GFPAgo2(S387A), lentivirally transduced neurons, parent: 0.9, read off a plot

Row | response | Variant
1 | 0.23 | chain 1 R386E

Variants of: B2
Assay: GFP-trap pull-down, Western blot quantification
Settings: with GFP-Ago2(S387D), shDDX6 with shRNA-resistant mCherryDDX6(R386E), partner GFPAgo2(S387D), lentivirally transduced neurons, parent: 1.4, read off a plot

Row | response | Variant
2 | 0.22 | chain 1 R386E
